Results published in publication PMC12136788.
Numbering of substitutions follows the chain as printed. The list shows a part of the results.

T1: UNK ZnF1-3 (human, UniProt Q9C0B0 31-174)
T1 sequence: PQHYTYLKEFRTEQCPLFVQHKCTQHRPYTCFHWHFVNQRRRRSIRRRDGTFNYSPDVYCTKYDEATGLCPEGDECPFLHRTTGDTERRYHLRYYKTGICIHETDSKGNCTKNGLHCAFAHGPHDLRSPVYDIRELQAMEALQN

B1: chr14:66974463:66974464:+_ENSMUSG00000022044_ENSMUST00000074523|mus_hu|mus_mus_mus_hu_False|18_68 (ssRNA)
RNA: GGGAGUUCUACAGUCCGACGAUCUUGUAGGACGACUUAUUCAGGGGAUCGGCCAGGAAGCAGGAGCAGAACAGAGACACCAGCGGGAGCUCCUUCAUCUUCUCUUUGUAGGCAGCAAGAGUCAUGUUUCUGGGAUCUGGUGGCCAACAGAGGAUUGAGCAUCA
B2: chr10:70718461:70718462:-_ENSMUSG00000019927_ENSMUST00000020085|mus_mus|motif|central (ssRNA)
RNA: GGGAGUUCUACAGUCCGACGAUCGUAAAAACCAAAGGGCUCGUGGAACGAAGGACACGGCAAACGGCGCCCGGCUUAAUGCGGACGCUGGAAAAGACAUAGAUUUUACAGUACUCUGGCGUAAGUGAAAGUGUUUGAAACUUUCAACAGAGGAUUGAGCAUCA
B3: 63353915_63354035_4938_CDS_ENSMUSG00000027520_ENSMUST00000029025|mouse|control|control (ssRNA)
RNA: GGGAGUUCUACAGUCCGACGAUCCUGUUGUAACUGGCAGGUAGUGGGCUGAUCAGAAGGAUCAACAUUGAAAUUGAGUUCAUGACCACAAGAUGGACAAGUAGAAUCGCCUAGGAUAAUAUAGUCAUUUUUCCUGUUUAUUAUCAACAGAGGAUUGAGCAUCA
B4: 89800263_89805006_4233_CDS_ENSMUSG00000002489_ENSMUST00000163370|mouse|control|control (ssRNA)
RNA: GGGAGUUCUACAGUCCGACGAUCCCAGAUGACGCUGGUGUGCAAGAGCAGGUCACCCAUGCUCAGAUCUGCAACCUCUUUCUUCUCUCCCGUCUGCUCAGCAAUCAGCUGGUCAAACACAGCACCAAACUCUUCGUGGAUCUUCAACAGAGGAUUGAGCAUCA
B5: chr10:120833061:120833062:-_ENSG00000107581_ENST00000369144|perfect_dup|motif|central (ssRNA)
RNA: GGGAGUUCUACAGUCCGACGAUCUUGGGACUCUUCUUUAGCAGCUUCUGUUUUUUCCUCUGCUAAUUUCAAAUAUGCCCGGACAACAUCUUCUAAAGAUUUAAUGUUUACCUGUUGGCAUAUGUUCUUAUAUUGAUAUAACCCCAACAGAGGAUUGAGCAUCA
B6: chr2:48026839:48026840:+_ENSG00000116062_ENST00000540021|hu_hu|hu_hu_hu_mus_False|98_108 (ssRNA)
RNA: GGGAGUUCUACAGUCCGACGAUCAUAGUGUGCCACUAGAGUCCUAAAUCUGGAACAGUGGCGGUCAUCCGAAAACUGGCCGAUGAAAAACUUGCCCAGUGAAGUGUCCACAAAGCAAACACCAUACACACGAGUGUGACCAGACAACAGAGGAUUGAGCAUCA
B7: chr2:48026839:48026840:+_ENSG00000116062_ENST00000540021|hu_hu|hu_hu_hu_mus_False|28_58 (ssRNA)
RNA: B6 RNA with U30A, A39C, G78A, G81U, C108A
B8: chr2:217001844:217001845:+_ENSG00000079246_ENST00000392132|hu_hu|hu_hu_hu_mus_False|28_108 (ssRNA)
RNA: GGGAGUUCUACAGUCCGACGAUCACCGACUUGAGGAUUAGAUCUUUUGUCAUAAGCAUAUCGGACGAUGGCGACCAUGUUUAACUCAUCCAAAGCAUGAACGAGAGAGGAAAGUGCAACAGCUGCCGCCUCAUCAUCCUUUGCCAACAGAGGAUUGAGCAUCA
B9: chr20:57566945:57566946:+_ENSG00000101158_ENST00000344018|hu_mus|FALSE|FALSE (ssRNA)
RNA: GGGAGUUCUACAGUCCGACGAUCGUGGACAGUCUCGAUAGCCUUUGACGUGGACUUGAGCUCGUCUUUGCCAAUGCUGACCCGCUUGUUCUUCUUCCAGGUCUCAACCACACUGGCAGCGUAAGCCAGGAUGUGGAUGUACUUCAACAGAGGAUUGAGCAUCA
B10: 40752187_40752307_78_3pUTR_ENSG00000182093_ENST00000333781|human|control|control (ssRNA)
RNA: GGGAGUUCUACAGUCCGACGAUCGGACGCUCCUGGCUGUGCUGGGUCCGCUACGGCAGCUCCAUGGGGACCACAACAACAGCGGCGACCGCGCCUGCGCGGUGAAGCCAAGCGCCCCAGAACAGGCGCGCCGACGCGCCUGCGCAACAGAGGAUUGAGCAUCA
B11: chr16:46990815:46990816:-_ENSG00000069345_ENST00000563158|hu_hu|motif|central (ssRNA)
RNA: GGGAGUUCUACAGUCCGACGAUCUCAAAAUGAAGAUGUAAAGCUUUGUGGUUAGUUUAAAUUAUACACUCUGUAGAUACGGUACCAAUUUUAAAAGUUAUACAUAGACCAACAGAUGUCCCUCAGUUCAUCUGGAUUGAUAAGCAACAGAGGAUUGAGCAUCA
B12: 21120498_21121148_3012_CDS_ENSG00000141458_ENST00000269228|human|control|control (ssRNA)
RNA: GGGAGUUCUACAGUCCGACGAUCUAUCACAAUUGGUCUCAUCCAGUCCUUUAGCAGAAGUGGAGAAUAGGAGUUUUUGAAGAAGCGAAACAAACAGCUCUCUGAGGCCUGGACGCUUGUUCCAUCUUCAGCACCUCUGACACACAACAGAGGAUUGAGCAUCA
B13: chr7:2411435:2411436:+_ENSG00000106263_ENST00000360876|hu_hu|FALSE|FALSE (ssRNA)
RNA: GGGAGUUCUACAGUCCGACGAUCGAUGGUUUCUUUCAUCUCGACCACAUCCACAGGUACCUGUUUCUCCCUCAUUCGGAAAAUUUCAAAAUUUGUGACAACACCCUGGGUGCCUUUCGGAGUCCUAUCUACUUUCACACACAACAACAGAGGAUUGAGCAUCA
B14: chr1:220276048:220276049:+_ENSG00000067704_ENST00000302637|hu_hu|hu_hu_hu_mus_True|18_28 (ssRNA)
RNA: GGGAGUUCUACAGUCCGACGAUCGCAAAUUGCCUGGUUGGCGGGAAUUGUCCAAGGCUGGGUGGUCCAAACUAAAACGCUAACAGGGGAUGAGGCAUCUGUAAGAGAUGCCAAUUUUGGAGAAGGCCUCAGGAGGGGGAAUCUCAACAGAGGAUUGAGCAUCA
B15: chr2:61705769:61705770:-_ENSG00000082898_ENST00000401558|hu_mus|FALSE|FALSE (ssRNA)
RNA: GGGAGUUCUACAGUCCGACGAUCUGGGCAUGAAGUAAAAGUUAUCUUAAAAAUGCCGUAAUUUUCAACUUCAUGCAAACUGAAUAAAGAUGACCAAAACAAAAGCUUAAACAAUGAAAGAAUAUUUCACAGAAAAUUUCUUAUCAACAGAGGAUUGAGCAUCA
B16: chr1:120316390:120316391:+_ENSMUSG00000064302_ENSMUST00000049404|mus_hu|FALSE|FALSE (ssRNA)
RNA: GGGAGUUCUACAGUCCGACGAUCUAACAUGGUCUGGUCAUGCUCAAGGUCAGCAGACUUCUGUUUGUCUGAGAAAUAGUCUAUCAGUUCUUGGCCAACCUGCAAUCGUUUCCCCACAUCCUUCUGCAACACCUGCGCCAGGCACAACAGAGGAUUGAGCAUCA
B17: chr14:62194323:62194324:+_ENSG00000100644_ENST00000337138|hu_mus|FALSE|FALSE (ssRNA)
RNA: GGGAGUUCUACAGUCCGACGAUCUCUUUCAUCACAGUAAGAAAAUUUCAUAUCGAGGCUGUGUCGACUGAGAAAUGUCUUGCUAUCUAAAGGAAUUUCAAUAUUUGACGGAUGAGGAAUGGGUUCACAAAUCAGCACCAAGCACAACAGAGGAUUGAGCAUCA
B18: 42054442_42057085_7686_CDS_ENSG00000174197_ENST00000570161|human|control|control (ssRNA)
RNA: GGGAGUUCUACAGUCCGACGAUCUUCUGUGGCCUGGUCUUUUUUUCUGGAAAGAAUCAAAGGUUUCCCCCUCCUGUUAUUUAUAAACAUCUGUCCAAGAUCUACAGAUGAUGCAGAAGAUCCUUCCUGCUGUUUGCUAAUUCUCAACAGAGGAUUGAGCAUCA
B19: chr22:19452774:19452775:-_ENSG00000070010_ENST00000399523|hu_hu|hu_hu_hu_mus_False|18_98 (ssRNA)
RNA: GGGAGUUCUACAGUCCGACGAUCCUUCUCAUUGUAGUUGAUGGCAAUCACAUCUCCAGUCGUCAGACAGGCGAAGUUUCUCAAUGCAUUUUCUAAUACCGCUUUAGGGUUGGUAAUGUCCAGGAAGUCUGGGCUCUGAGGCUGCAACAGAGGAUUGAGCAUCA
B20: chr3:10015032:10015033:+_ENSMUSG00000027533_ENSMUST00000029046|mus_mus|mus_mus_mus_hu_True|28_78 (ssRNA)
RNA: GGGAGUUCUACAGUCCGACGAUCGUUUUUACCAUCACAAGUGAUGAUACAAUCUGGCUUGGCCAUGGCGCCCAUUUUUCGCAAAGCUAUUCCCACUCCUAGCUCCUUCAUGUACUCAUCAAAGCCUUUGCUGUCCACCAGGCGCAACAGAGGAUUGAGCAUCA
B21: chr3:176740097:176740098:-_ENSG00000177565_ENST00000430069|hu_mus|hu_hu_hu_mus_True|8_78 (ssRNA)
RNA: GGGAGUUCUACAGUCCGACGAUCUGUUUUGUAUACCACAAAAGGAGGCACUUUCAGUAUCUGUAAAAGGUGUUUAGUCCUAAAACAUACUCACCUAGAGGAUAACUCAGGAAAACAAUCUGUUACACUAGUAUCUAUACUCCACAACAGAGGAUUGAGCAUCA
B22: chr2:47387770:47387771:-_ENSG00000143933_ENST00000272298|hu_mus|hu_hu_hu_mus_True|38_108 (ssRNA)
RNA: GGGAGUUCUACAGUCCGACGAUCAAGGUUUUAGGACAAUGACAGUAAGAUAAGGGAAGAAAACAUGGAGGAAUGAAGUCCUAAUUACUAUACAUGCAUAUUUUUUUACAGUAGGGGGGGGGAACCUUUUACAGAUAAGUUACACAACAGAGGAUUGAGCAUCA

The binders below were run against T1, UNK ZnF1-3 (assay: nsRBNS (natural sequence RNA bind-n-seq); RBNS binding buffer (assumed for nsRBNS): 25 mM Tris pH 7.5, 150 mM KCl, 3 mM MgCl2, 0.01% Triton X-100, 500 ug/ml BSA, 20 U/ml SUPERase-In, 4 C; UNK is unkempt and MSI1 is Musashi-1; names of the RNAs are library labels; protein concentration not given here; high values mean tight binding).

Binder	binding signal [enrichment R]
B1	2.55
B2	0.571
B3	1.41
B4	1.2
B5	0.789
B6	1.05
B7	1.26
B8	1.69
B9	0.665
B10	0.408
B11	0.61
B12	0.871
B13	0.931
B14	2.86
B15	0.874
B16	0.88
B17	1.13
B18	0.978
B19	0.745
B20	0.745
B21	0.724
B22	2.02
